The whole screen tested about 48,000 compounds, of which about 450 (0.94%) were called active. Inconclusive means that the source gave no clear call. Such entries were picked first, then a sample of the others. Calls come from the whole dose curve; as a rule, active = well fitted inhibition curve with a large enough effect; inconclusive = small, poorly fitted or top-dose-only effect; inactive = no such curve, though single readings can be large or run the other way. Potencies of inconclusive entries are doubtful fits and often do not repeat.
experiment: Primary qHTS for Identification of Small Molecule Inhibitors of Huntingtin Promoter Activity; settings: HEK293 HTT promoter firefly luciferase reporter (activity 0% = vehicle and -100% = no light), 24 h; series mostly up to 57.5 µM; note: nearly all actives have a fitted effect of over 50% in size
Outline: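 Firefly luciferase signal from promoter-reporter HEK293 cells was scaled between vehicle (0%) and zero RLU (-100%). Compounds were tested at final concentrations of up to 57.5 uM over 24 h at 37 degrees C. PTC124 at 50 uM final served as control inhibitor.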
Potency is the fitted concentration of half-maximal effect; tags give direction and shape of the fitted curve.

Potency, inactive:
Nc1ncnc2c1ncn2[C@@H]1O[C@@H](CO)[C@H](O)[C@H]1O
Cc1c(C(=O)N2CCC(C(=O)Nc3ccc(F)c(Cl)c3)CC2)sc2nc[nH]c(=O)c12
COc1cccc(CNC(=O)Nc2cn(CC(C)C)c(=O)c3ccccc23)c1
CCOc1ccc(CCNC(=O)c2c(C)oc3ncn(CC(C)C)c(=O)c23)cc1
Cc1cccc(N(C)C(=S)Oc2ccc3c(c2)C2CCC3C2)c1 (stereo not drawn)
CC(=O)Nc1cc(C(=O)NCc2ccc(F)cc2)ccc1S(=O)(=O)c1ccc(C)cc1
CCn1c2ccccc2c2cc(CN3CCN(Cc4ccc(Cl)cc4)CC3)ccc21
CC(C)C(=O)Nc1cccc(C(F)(F)F)c1

Potency, inconclusive:
COc1cc(NS(=O)(=O)c2cc(Br)cc3c2N(C(C)=O)C(C)C3)cc(OC)c1 (stereo not drawn) 22.4 µM [inhibitor, partial curve, poor fit]
Cc1cccc(N(C)C(=O)C2CCC(CNS(=O)(=O)c3cccc4nsnc34)CC2)c1 (stereo not drawn) 5.62 µM [inhibitor, partial curve]
COc1cc([C@@H]2c3cc4c(cc3[C@@H](O[C@@H]3O[C@@H]5CO[C@@H](c6cccs6)O[C@@H]5[C@H](O)[C@@H]3O)[C@H]3COC(=O)[C@H]23)OCO4)cc(OC)c1O 0.0968 µM [inhibitor, full curve]
Cc1nc(N2CCCC2)ncc1C(=O)Nc1ccc(OC(F)(F)F)cc1 15.8 µM [inhibitor, partial curve]
COc1ccc(OCc2ccc(-c3nc(C#N)c(NCc4ccc(F)cc4)o3)o2)cc1 39.8 µM [inhibitor, single point]
Cc1cccc(N(C)S(=O)(=O)c2nnc(NC(=O)C(C)(C)C)s2)c1 28.2 µM [inhibitor, partial curve, poor fit]
C[C@@]1(c2cc(-c3cncnc3)c(F)cc2F)CCSC(N)=N1 43.2 µM [inhibitor, partial curve, poor fit]
O=C(c1ccc2c(c1)N(Cc1ccccc1F)C(=O)c1ccccc1S2=O)N1CCC(Cc2ccccc2)CC1 (stereo not drawn) 28.2 µM [inhibitor, single point]
CSc1nc(Nc2ccc(C)cc2C)cc(-c2ccccc2)n1 39.8 µM [inhibitor, single point]
CN(Cc1ccccc1)C(=O)C1CCN(S(=O)(=O)c2ccc3c(c2)oc(=O)n3C)CC1 28.2 µM [inhibitor, partial curve, poor fit]
COc1cc(CNC(=O)c2sc3ncccc3c2-n2cccc2)cc(OC)c1OC 20 µM [inhibitor, partial curve, poor fit]
COc1ccc(NC(=O)CN2C(=O)C(C)(C)c3ccccc32)cc1Cl 15.8 µM [inhibitor, partial curve]
N#Cc1nc(-c2ccc(COc3ccccc3)o2)oc1NCc1cccnc1 20 µM [inhibitor, single point]
Cc1cccc(N2CCN(C(=O)Cn3ncc4c3-c3cc(C)ccc3OC4)CC2C)c1 (stereo not drawn) 35.5 µM [inhibitor, single point]
C[C@]1(CO)CN(c2cc(C(=O)Nc3ccc4c(c3)-c3c(c(C(N)=O)nn3-c3ccc(F)cc3)CC4)c(Cl)cn2)C[C@@]1(C)CO 13.7 µM [inhibitor, full curve]
Cc1cccc(Cn2cc(/C=C(/C#N)C(=O)Nc3cccc(Cl)c3)c3ccccc32)c1 11.2 µM [inhibitor, single point]
CCN(CC)c1nc2c(S(=O)(=O)c3ccccc3)nnn2c2ccc(Cl)cc12 39.8 µM [inhibitor, single point]
Cc1cccc(-c2nc(S(=O)(=O)c3ccc(Cl)cc3)c(N3CCCCCC3)o2)c1 31.6 µM [inhibitor, partial curve, poor fit]
Cc1cccc(CS(=O)(=O)Cc2ccc(C(=O)NCc3ccccc3)o2)c1 15.8 µM [inhibitor, single point]
CCOc1ccc(N(C)S(=O)(=O)c2cc(-c3cc(C)no3)ccc2OC)cc1 20 µM [inhibitor, single point]
COc1cccc(N2C(=O)C(CC(=O)Nc3ccccc3)N(CCc3sccc3C)C2=O)c1 (stereo not drawn) 35.5 µM [inhibitor, single point]
O=C(NCCc1ccc(F)cc1)C(=O)NCC(c1cccs1)S(=O)(=O)c1ccc(Cl)cc1 (stereo not drawn) 14.1 µM [inhibitor, partial curve, poor fit]
CCc1cccc(C)c1NC(=O)CCCn1c(C)c2cnn(-c3ccccc3)c(=O)c2c1C 39.8 µM [inhibitor, single point]
Cc1cccc(C)c1NC(=O)Cn1cc(C(=O)c2ccco2)c2ccccc21 35.5 µM [inhibitor, single point]
CCc1nc(Nc2ccc(F)c(Cl)c2)c2c3c(sc2n1)CCCC3 25.1 µM [inhibitor, single point]
CCc1nc2c(cnn2-c2ccc(C)cc2)c(=O)n1-c1ccc(C)cc1 39.8 µM [inhibitor, single point]
Cc1ccc(-c2noc(C(C)NC(=O)c3ccco3)n2)cc1 (stereo not drawn) 22.4 µM [inhibitor, single point]
COc1ccc(S(=O)(=O)c2c(SC)nn(CC(=O)Nc3ccc(C)c(Cl)c3)c2N)cc1 28.2 µM [inhibitor, single point]
O=C(NCc1ccc(F)cc1)c1ccc2c(c1)N(Cc1c(F)cccc1Cl)C(=O)CS2 31.6 µM [inhibitor, single point]

Potency, active:
CC(C)(C)C1CCc2nc(NC(=O)COc3ccccc3[N+](=O)[O-])sc2C1 (stereo not drawn) 4.47 µM

Source: PubChem BioAssay AID1508623 (National Center for Advancing Translational Sciences (NCATS), 2021)
